The text below walks through data of PubChem BioAssay AID1963970 (Molecular Pharmacology Branch, DTP, NCI, 2024).

The test system of the assay is 931267-113-T-J1-PDC multicell spheroid viability. The experiment in a line: Anticancer human tumor 931267-113-T-J1-PDC patient-derived colon adenocarcinoma cell line growth inhibition [PI3K]. The note with it: for IC50: compound alone; for viability, T/C: stronger effect = lower value. An excerpt: Combinatorial screen of targeted agents with the PI3K inhibitors inavolisib, alpelisib, duvelisib, and copanlisib in multi-cell type tumor spheroids
A high-throughput screen of multi-cell type tumor spheroids was designed to identify active combinations of targeted small molecules and PI3K pathway inhibitors. Complex spheroids include a stromal component modeled by human endothelial cells (HUVEC) and fibroblasts modeled by human mesenchymal stem cells (MSCs). The concentration ranges selected for each drug and investigational agent were based upon clinically achievable concentrations if the clinical Cmax of the agent was known.
Compounds. The drugs and investigational agents: inavolisib (NSC800729), alpelisib (NSC765974), duvelisib (NSC772469), copanlisib (NSC816437), ipatasertib (NSC767898), afuresertib (NSC778305), talazoparib (NSC767125), sapanisertib (NSC764658), selumetinib (NSC741078), tovorafenib (DAY101, NSC766906), vemurafenib (NSC761431), ravoxertinib (NSC781343), sotorasib (NSC818433), MRTX1133 (NSC 836407), abemaciclib (NSC 768073), palbociclib (NSC758247), venetoclax (NSC 766270), SY5609 (NSC837396), enzalutamide (NSC755605), and darolutamide (NSC825331), were obtained from the National Cancer Institute (NCI) Developmental Therapeutics Program Chemical Repository. The FDA-approved anticancer drug set is available from the NCI Developmental Therapeutics Program. […] The stock solutions were prepared in dimethyl sulfoxide (DMSO, Sigma-Aldrich, St. Louis, MO, cat. D2650) at 800-fold the tested concentration and stored at -70 degrees C prior to their use. All drugs and investigational agents were tested over a range starting from a high concentration at or near the clinical Cmax and decreasing in half-log increments. If the clinical Cmax for an agent had not been determined, the highest concentration tested was 10 microM.
Cell Culture. All cells were maintained in an incubator at 37 degrees C and 5% CO2 with 95% humidity. The PDC lines were cultured according to standard operating procedures established by the NCI PDMR (https://pdmr.cancer.gov/sops/default.htm). All PDCs were thawed and cultured in Matrigel-coated flasks prepared with a working solution of 1X Ham's F-12 nutrient mix, without supplementation (Invitrogen, Waltham, MA, cat. 11765054), 100 U/mL penicillin-streptomycin (Invitrogen, cat. 15140122), and 2.5% Matrigel (Corning Inc., Corning, NY, cat. 354248) for the first three passages. The 354836-022-R-J1-PDC, 475296-252-R-J1-PDC, and 997726-040-R-J2-PDC lines were cultured in 6A media, which includes advanced DMEM/F-12 (Thermo Fisher Scientific, cat. 12634028), 10 mM HEPES (Thermo Fisher Scientific, cat. 15630080), 1X GlutaMAX supplement (Thermo Fisher Scientific, cat. 35050061), 0.1 mg/mL primocin (InvivoGen, San Diego, CA, cat. ant-pm-2), 10% defined fetal bovine serum, heat inactivated (HyClone Laboratories Inc., Logan, UT, cat. SH30070.03HI), 50% L-WRN conditioned media (ATCC, cat. CRL-3276), 1.25 mM N-Acetyl-L-cysteine (Sigma-Aldrich, cat. A9165), 10 mM nicotinamide (Sigma-Aldrich, cat. N0636), 1X B-27 supplement (Thermo Fisher Scientific, cat. 17504044), 1X N-2 supplement (Thermo Fisher Scientific, cat. 17502048), and 10 microM Y-27632 dihydrochloride (Tocris Bioscience, Bristol, United Kingdom, cat. 1254). The 624824-186-R-J2-PDC line was cultured in 6C/Colon 1B media, which includes all 6A media components plus 50 ng/mL human EGF recombinant protein (Thermo Fisher Scientific, cat. PHG0311). […]

A word on the IC50: it is the concentration needed to halve the response being measured. One may read the viability, T/C as the result in the treated group divided by that in the control group, in per cent.

The source holds more than one record for some entries. Only these are listed. There may be further records. Results that share an entry are repeated measurements across runs, samples, wells, individuals or studies.
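Further: viability read 7 days after compound addition.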

As to `CC1(C)CCC(CN2CCN(c3ccc(C(=O)NS(=O)(=O)c4ccc(NCC5CCOCC5)c([N+](=O)[O-])c4)c(Oc4cnc5[nH]ccc5c4)c3)CC2)=C(c2ccc(Cl)cc2)C1`, the IC50 was 6.11 µM, 6.16 µM, 6.96 µM, > 10 µM. Also, where the note is “compound alone 10 µM”, the viability, T/C is 14.7, 18.1, 25.4, 78.2%. `CC1(C)CCC(Nc2ncc(C(F)(F)F)c(-c3c[nH]c4c(P(C)(C)=O)c(C#N)ccc34)n2)CN1` (stereo unspecified): where the note is “compound alone 3.16 µM”, the viability, T/C is 75.1, 72.3, 97.5, 83.6%. In the case of `Cn1nccc1Nc1nccc(-c2ccn(C(CO)c3ccc(Cl)c(F)c3)c(=O)c2)n1` (stereo unspecified), the IC50 is recorded as 6.02 µM, 5.9 µM, > 10 µM, 5.97 µM. In the case of `CCCS(=O)(=O)Nc1ccc(F)c(C(=O)c2c[nH]c3ncc(-c4ccc(Cl)cc4)cc23)c1F`, the viability, T/C (compound alone 3.16 µM) is 106, 133, 121, 131%. On to `C=CC(=O)N1CCN(c2nc(=O)n(-c3c(C)ccnc3C(C)C)c3nc(-c4c(O)cccc4F)c(F)cc23)C(C)C1` (stereo unspecified), for which, for the setting “compound alone 0.1 µM”, the viability, T/C was 83.6, 100, 111, 97.7%.
